# Results from PMC7894572 (Chemmedchem, 2020).
# Conditions: 100 μM, enzyme assay buffer
smiles,measurement,value
"C[C@H](c1cccc2ccccc12)N1Cc2cccc(F)c2C1 [Compound 14 b, 4‐Fluor‐2‐[(1R)‐1‐naphth‐1‐ylethyl]‐2,3‐dihydro‐1H‐isoindol chloride]",Solubility under the conditions used in the assay,n.d. (insoluble)^[d]
"C[C@H](c1cccc2ccccc12)N1Cc2cccc(Cl)c2C1 [Compound 14 g, 4‐Chlor‐2‐[(1R)‐1‐naphth‐1‐ylethyl]‐2,3‐dihydro‐1H‐isoindol]",Solubility under the conditions used in the assay,n.d. (insoluble)^[d]

# Marks after values point to notes of the source that are not given here.
